Data from publication PMC12136788.
The list shows a part of the results.

B1: 49646213_49650828_442_CDS_ENSMUSG00000028309_ENSMUST00000029989|mouse|control|control (ssRNA)
RNA: GGGAGUUCUACAGUCCGACGAUCUUCUGCUAGCUUACGAUUCUUGGAUUGCAGUGUUCGAAUGUCUAAUUCCUCCGUUGAAGAGACACCUCCUAACUUAAUUGUUUCCACGGUGGUCCCUGAAUCUUCAACAGCUGUCUUCUUCAACAGAGGAUUGAGCAUCA
B2: chr11:86532819:86532820:-_ENSMUSG00000047126_ENSMUST00000103186|perfect_dup|motif|central (ssRNA)
RNA: GGGAGUUCUACAGUCCGACGAUCCAUGGCUCUGAGACAUUCUAGGGAGUCUUCUACUGAUAAGGAACCAAAGUAGUUGACGGACCACUCAGGGUUAAGAAGAUGGGUGUGAACCACUGCACGUUUUAUAUCAUAUAAAUCAGUCAACAGAGGAUUGAGCAUCA
B3: chr10:126492284:126492285:-_ENSMUSG00000040502_ENSMUST00000040307|mus_mus|motif|central (ssRNA)
RNA: GGGAGUUCUACAGUCCGACGAUCAUGCACACCACUAACCCACACCCCCAGCCCUUAGACCCACAUUCCCCAAAUCCUUUCGGUAAUAAAUAAGAGUUCUUACGCCUCUCUCUCUCAGUAAUACCAUUAGCCGGGCACACCUGGCAACAGAGGAUUGAGCAUCA
B4: chr3:90158266:90158267:+_ENSMUSG00000042390_ENSMUST00000049382|mus_mus|FALSE|FALSE (ssRNA)
RNA: GGGAGUUCUACAGUCCGACGAUCACCAUUCUUUUCUUGCUUCCAGUGAGGGGUGAAAUCUGUGCGGCACUGGGCACAUACAAAGGGUUCGACCCUCAGAAGUGAGGCACAGUUUUUGCCUUGGCUGUCAAUGACACUCUGUACCAACAGAGGAUUGAGCAUCA
B5: chr7:125984895:125984896:+_ENSMUSG00000030982_ENSMUST00000106553|mus_hu|FALSE|FALSE (ssRNA)
RNA: GGGAGUUCUACAGUCCGACGAUCGGCCAAAGCUUAAAACAAUUUGUACAUAUGUAAAAAGAAAAGAAAAAUGAGAAACCUAAAUUGCCGUAAGAGUUCAGGGCAGCAGAGCAGAUCUUUCUGGAUUUGGCACCAGAGUCCCUGCAACAGAGGAUUGAGCAUCA
B6: chr9:131455196:131455197:+_ENSG00000119335_ENST00000372688|hu_mus|motif|central (ssRNA)
RNA: GGGAGUUCUACAGUCCGACGAUCAAAUUCUUUGGAGAGAACUUUAUUUUCAAAGUAAGGAUUUUCAUCAAAAUAAAAAUCGGUUCUGUAACCUGAUUUAAUGUCUUCAAAUUCUGUCACUUCAACUCUGGUCAAAUAAUGCAGCAACAGAGGAUUGAGCAUCA
B7: chr9:96978117:96978118:-_ENSMUSG00000032449_ENSMUST00000035024|mus_mus|FALSE|FALSE (ssRNA)
RNA: GGGAGUUCUACAGUCCGACGAUCUACAUAACAAUGUUAAAGAAAUUAACAUGAAUUCUCUCCUGACCCUUACCCCCUCAAAAGGCCACAAAGUGCAUUCACAAAGUCAUUCUGAAGAGAAAGCCAUUGCACAAAGUGUAAAGUCAACAGAGGAUUGAGCAUCA
B8: chr16:36023280:36023281:+_ENSMUSG00000022905_ENSMUST00000004054|mus_mus|FALSE|FALSE (ssRNA)
RNA: GGGAGUUCUACAGUCCGACGAUCUGUCUGAAUAUCAUCCCCUGUGACAAUGUUUCCCACAGCCCGCAAAGCAGGAGAAACUACUUUAUAGUCAUUAUGCAUCAGAAGUUCCACAAGCCUCCUGCAGACUCCUGCAUCGAUGACCAACAGAGGAUUGAGCAUCA
B9: 36835227_36835347_1850_3pUTR_ENSMUSG00000029192_ENSMUST00000171385|mouse|control|control (ssRNA)
RNA: GGGAGUUCUACAGUCCGACGAUCUGAUAGGGAGAUUUAAAACACACCUUUCAUCUCUGGAAAGAUUAUCUCAGUAACUAAGUAAUUCCUUUCUUACAAGCAUAUGGGCCAAAAACAACUCUGAGGUUUCCUAAUAACAUUUCUCAACAGAGGAUUGAGCAUCA
B10: 92625623_92627572_2463_3pUTR_ENSG00000165934_ENST00000298875|human|control|control (ssRNA)
RNA: GGGAGUUCUACAGUCCGACGAUCAUUGUUGCAAACAAGUACACCUCCUACAAAUUCAGCUUGAAUCCCCUCCCGUAAGAGAACUUGCUUGAAGUCUGACAGCCUUGGUUCAUUCAUAAAAACUGACUGAUGUCCAGGAACCUCCAACAGAGGAUUGAGCAUCA
B11: chr11:75570464:75570465:+_ENSMUSG00000020849_ENSMUST00000067664|mus_hu|motif|central (ssRNA)
RNA: GGGAGUUCUACAGUCCGACGAUCACGGUCAGGGGAAUUAAGAAUUUCGUAGUAGAAUACGGAAAAAUUGAGAGCAAGACCGGAGCGAAUAGGAUGCGUUGGUGGAAGUUCUGUCAUUGCAAUAUCACUAGCAGCUUUAUAAGCCAACAGAGGAUUGAGCAUCA
B12: chr17:65337135:65337136:-_ENSG00000197170_ENST00000584008|hu_mus|motif|central (ssRNA)
RNA: GGGAGUUCUACAGUCCGACGAUCCUGGAAGUUGAUGACUCCAGCCAACCUGUCUACUUUAGCAAAGAUGGUCUUGUUAACGACGGGAUUCGAGAGGAAAGCCUCUGACUCAUCCACAGAGAGAUCCAGAAGUUGUGCCAUCCUCAACAGAGGAUUGAGCAUCA
B13: chr2:47387792:47387793:-_ENSG00000143933_ENST00000272298|hu_mus|FALSE|FALSE (ssRNA)
RNA: GGGAGUUCUACAGUCCGACGAUCUAAGGACAAUGACAGUAAGAUAAGGGAAGAAAACAUGGAGGAAUGAAGUCCUAAUUACUAUACAUGCAUAUUUUUUGACAGUAGGGGGGGGGAACCUUUUACAGAUAAGUUACAAACAAACAACAGAGGAUUGAGCAUCA
B14: chrX:20248820:20248821:+_ENSMUSG00000001924_ENSMUST00000001989|mus_mus|mus_mus_mus_hu_True|48_98 (ssRNA)
RNA: GGGAGUUCUACAGUCCGACGAUCGGCGAAGUCCGUCAUCACAAAGUCAGGUUCUGCCAGUGAGGCCACCAAGGAUUUAAAGCUAAUCUUUUUCGGUACUUUGACCUGACUGACGAUGCCUCCACGGAUGUAGUCGGAGAAGUUCAACAGAGGAUUGAGCAUCA
B15: chr5:179044645:179044646:-_ENSG00000169045_ENST00000393432|hu_mus|FALSE|FALSE (ssRNA)
RNA: GGGAGUUCUACAGUCCGACGAUCUACUCUGCCAUCAGGUCCAAUCUCAAUAUGUACUCUCACAGGGUUGAGUGGUGAAAAAAAAUUAUAAAUGUCAUUCUCAGUAGCUCUGUAUGGUAAUCCCCGCAUGUGUACACAGUGUCCCAACAGAGGAUUGAGCAUCA
B16: chr4:25749455:25749456:-_ENSG00000091490_ENST00000264868|hu_hu|hu_hu_hu_mus_False|18_88 (ssRNA)
RNA: GGGAGUUCUACAGUCCGACGAUCGCACUAUGACCUCUAGAAAAAUCAUUCAAGGAGAAAAAUGUAAACCAAUGUACAAUGUUAUCGCCUUCCCUGUGUGUGGAGUGUUUGUCUCAAUAUUUCAAGGAGCUGCUGGAUUUGGGACAACAGAGGAUUGAGCAUCA
B17: chr7:151048522:151048523:+_ENSG00000013374_ENST00000566856|hu_mus|hu_hu_hu_mus_True|1_88 (ssRNA)
RNA: GGGAGUUCUACAGUCCGACGAUCCUGUUUCUUAUUUAUUACGAUCUUGAUAUAAUUUUCUUGAAAUCCGAAAGUUUCAGCUAUUUGACACCUCAGGUCUCUACCAGUGACAUGCAAGCGGGUCUCCAACAAGCUUUUCCUAUCCAACAGAGGAUUGAGCAUCA
B18: chr2:47387792:47387793:-_ENSG00000143933_ENST00000272298|hu_hu|hu_hu_hu_mus_True|8_38 (ssRNA)
RNA: GGGAGUUCUACAGUCCGACGAUCUAAGGACAAUGACAGUAAGAUAAGGGAAGAAAACAUGGAGGAAUGAAGUCCUAAUUACUAUACAUGCAUAUUUUUUUGACAGUGGGGGGGGGAACCUUUUACAUAAGUUACAAAAACAAACAACAGAGGAUUGAGCAUCA
B19: 29593529_29593649_643_3pUTR_ENSMUSG00000020458_ENSMUST00000102843|mouse|control|control (ssRNA)
RNA: GGGAGUUCUACAGUCCGACGAUCGGGGGCGCGGCGGGCUCCGCUAGGGGGCUCGCGCCGGCUGGCGCCGGAGGCCGCGCUGGAGGCUCGUCGUCCUCCGGGAGCUUGGAGGGCAGGACUGCGGCAGCGGGCGGCAGGGAUGGCCAACAGAGGAUUGAGCAUCA
B20: 156865943_156866063_2208_CDS_ENSMUSG00000055485_ENSMUST00000069098|mouse|control|control (ssRNA)
RNA: GGGAGUUCUACAGUCCGACGAUCGCACAGCCGGGCGGCGUGGGGCUCCAGCGUCUCACCCAGAGGGGCAGGCACGCACUGCGCAGAGUCCCCAGCCUCAGCGUCCGUCUCCAGCAUGGGGCGUGUGCUCUGGCAGGAGGCCAGCAACAGAGGAUUGAGCAUCA
B21: chr4:40210074:40210075:-_ENSMUSG00000036822_ENSMUST00000042575|mus_hu|motif|central (ssRNA)
RNA: GGGAGUUCUACAGUCCGACGAUCUAUAGGACACUUAGAAUCAGGAGAUGCAUCAGCUGGUACUGUCUGUUGCAAUUUGCGGGUGCCAGCUUUAGGUGAAAAGUUGUCCAUUUUAAAUUCCUUAGCAGCUGAUGCCAUUAUCAUCAACAGAGGAUUGAGCAUCA
B22: chr3:41277855:41277856:+_ENSG00000168036_ENST00000349496|hu_mus|motif|central (ssRNA)
RNA: GGGAGUUCUACAGUCCGACGAUCUUCAAUGGCCUCUGCAGCCUCCUUGUCCUGAGCAAGUUCACAGAGGACCCCUGCAGCGGCUCUUUGGAUAUUUUCAAUGGGAGAAUAAAGCAACUGCACAAACAAUGGAAUGGUAUUGAGCAACAGAGGAUUGAGCAUCA

The binders below were run against T1, UNK ZnF1-3 (human, UniProt Q9C0B0 31-174) (assay: nsRBNS (natural sequence RNA bind-n-seq); RBNS binding buffer (assumed for nsRBNS): 25 mM Tris pH 7.5, 150 mM KCl, 3 mM MgCl2, 0.01% Triton X-100, 500 ug/ml BSA, 20 U/ml SUPERase-In, 4 C; UNK is unkempt and MSI1 is Musashi-1; names of the RNAs are library labels; protein concentration not given here; high values mean tight binding).
T1 sequence: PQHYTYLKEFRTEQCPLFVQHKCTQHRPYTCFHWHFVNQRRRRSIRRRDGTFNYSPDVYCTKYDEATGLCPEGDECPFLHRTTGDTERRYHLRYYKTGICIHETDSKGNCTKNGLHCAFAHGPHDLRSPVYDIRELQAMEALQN
For B1, the binding signal was 0.603 enrichment R.
Work on B2 yielded a binding signal of 1.08 enrichment R.
Work on B3 yielded a binding signal of 1.52 enrichment R.
Binder B4 has a binding signal of 0.745 enrichment R.
For B5, the binding signal was 2.87 enrichment R.
B6 showed a binding signal of 0.57 enrichment R.
For B7, the binding signal was 1.31 enrichment R.
B8 showed a binding signal of 1.3 enrichment R.
B9 gave a binding signal of 0.894 enrichment R.
B10 was tested, and the binding signal was 0.983 enrichment R.
B11 gave a binding signal of 1.82 enrichment R.
For B12, the binding signal was 0.648 enrichment R.
With B13 the binding signal was 2.02 enrichment R.
With B14 the binding signal was 0.793 enrichment R.
Binder B15 has a binding signal of 2.18 enrichment R.
B16 gave a binding signal of 1.5 enrichment R.
Binder B17 has a binding signal of 0.96 enrichment R.
For B18, the binding signal was 2.26 enrichment R.
B19 gave a binding signal of 0.992 enrichment R.
B20 was tested, and the binding signal was 0.722 enrichment R.
Binder B21 has a binding signal of 0.565 enrichment R.
For B22, the binding signal was 1.35 enrichment R.
